From the supplement of paper PMC10126150
Values marked as one replicate rest on one cluster of the flow cell; about a third of the high ones do not repeat.

System: ATP
Assay: switch fluorescence ratio, 500 uM ATP over buffer (Cy3 cluster intensity, sum of 5 cycles each) (fold (ratio)); higher = stronger signal-on switching upon ATP binding; sequences stand for … in TCGTCGGCAGCGTCAGATGTGTATAAGAGACAGTTTTTTTTTTTTTTTTTTTTTTTTT…TC
Settings: aptamer strand: ATP DNA aptamer (quencher-CACCTGGGGGAGTATTGCGGAGGAAGG + anchor), 100 nM annealed; ATP concentration: 500 uM; one replicate
Summary of the method: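 Imaging in selection buffer was followed by imaging after 15 min with 500 uM ATP at 22 °C, for Cy3-labelled switching-strand clusters annealed to 100 nM quencher-labelled ATP aptamer on a modified Illumina MiSeq flow-cell. Five of these buffer/ATP cycles ran, separated by NaOH stripping and re-annealing. The fluorescence ratio per cluster is summed target-cycle over summed buffer-cycle Cy3 intensity, averaged per switch-domain sequence; clusters outside 100-1000 RFU were removed.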
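Further: ATP exposure 15 min at 22 °C before imaging.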

Sequence | switch fluorescence ratio
AGACGCAAAT | 3.01
AAAACTCTTG | 1.02
TGTTGCCCGA | 1.07
TTAAATTGTA | 1.03
AACTATCCTT | 0.959
GATGTCTGCC | 0.991
TTTGTGACAT | 1.03
GATCCCAAT | 1.27
TCAGGGCCCA | 1.05
CCGGTCCGTT | 1.03
AATGGACTAT | 0.985
CCATGAACCG | 1.09
ATCTCGTCGA | 1.01
ACACGGGCAC | 1.32
CATTTTATC | 0.973
GTTCCTTTGG | 0.984
GATAATACGC | 1.09
TTTGATCACT | 1.05
GGAGAGGATG | 1.01
GGCTACTACG | 1.04
TGATTACGAG | 1.04
GGCAAAAGCT | 1
TGGTAGGTAT | 0.959
TCATAGGTG | 1.27
CTTATGAAAA | 0.985

Sequence | switch fluorescence ratio
TTTTACAACA | 1.13
TTATGTCTAT | 0.999
AATTTGATTT | 1
CCACAATTAT | 1.27
GAGTAATGAT | 0.995
TCTAAGGTGG | 1.03
GGGCAGTGTC | 1.08
AATACCGCTC | 1.34
AGGACACACG | 1.15
AGTATAGAAT | 0.969
CCCGTTCGT | 1
AAGCCGGTGT | 1.02
ACCAGGGACC | 1.01
GAGGTCGATT | 0.983
ATGTGACCTT | 1.16
CTTCGGAAGG | 1.13
ATGGACAGGA | 0.993
TGCTGATAGG | 1.03
TTCTCTTTC | 1
TCAAAAGATT | 1.01
TTGACTAGGC | 1.11
ATATGGGTTG | 1.03
ATATCGTAGT | 1.01
TGTTAACCCG | 1.01
GAGGTGCGGA | 0.947

Sequence | switch fluorescence ratio
CCGAGATTGT | 1.05
TATATGACAA | 1.02
CCTTCCAGAA | 1.45
CTCAGGAGTT | 1.04
CACGAGTAGA | 1.05
CTCCGAAGAG | 3.99
GGGGTAGCTC | 0.963
GAAAGTCA | 0.967
ATTATCCCCA | 1
CGACTGCAGG | 1.05
TGCATGGGAC | 1.03
CAGCTTGGGA | 1.01
TTTCGACCA | 1.02
AAACGGGACC | 1.09
GCGAGAGGTA | 1.03
ATGAAGAACG | 1.06
TGAGAACAAG | 0.986
ATTCACGGGT | 1.06
GAAATTCAAT | 1
GTTAAGCCGC | 1.05
ATCTTTGATA | 1.06
TTATTATTAT | 0.995
TTAGGATGCT | 0.994
TAGGGGACGC | 1.01
CAAGAATAGG | 0.969

Sequence | switch fluorescence ratio
TTTATAATGC | 1.1
GTCCTCAATT | 1.12
ATGCTAGATC | 1.21
TTATATAATG | 1.01
GCAGGATTCT | 0.991
GATTTCGTGA | 0.979
CGCTAGTGCT | 1.14
TTTTTAAGT | 0.977
TTGAATGTAT | 1.01
AGACATGTTC | 0.956
CAGCTGATTC | 1
GGTGTCTT | 0.975
GAGGGGCGCT | 1
GTATTGCACT | 0.987
GCGATATATT | 1.04
TTTGAGTCCT | 1.03
ATACTGACGT | 1.4
GAAAAAGTTA | 0.966
ATCAATTGCG | 1.04
GGGAAATTTA | 1
ACCACGAGTT | 1.04
ATGTCCTTGT | 0.993
GACAAAACGA | 0.995
GCCGGTGGTT | 1.03
ACGATGTATA | 0.979

Sequence | switch fluorescence ratio
AGTACGGTAC | 1.28
AGACGGACTT | 1.2
AAGGAGATGT | 1.01
TTAAAAAATC | 0.99
AATTGCTCTG | 0.968
GGAGATACGG | 1.01
ATATACCGGT | 1.01
CGCATGCAAG | 1.03
GAGGTCCTAA | 0.996
GAGTCGGGTT | 0.968
CATAGGGGGA | 1.08
ATTTATGTCA | 0.997
GATGTAGAGG | 0.945
CCATAGACCG | 1.01
TTCATTATGT | 0.975
GTTGCTGGAC | 1.05
GCCGAATGTC | 1.04
AATCGCTGTG | 1.04
GTTGGGTACC | 1.03
CCTTGATCCC | 1.09
TGAGTCTATG | 1.02
AGATCTGGG | 1.09
CGACGTGTGC | 2.65
TGGGCAGTAG | 1.05
CCGAATTAGG | 1.05

Sequence | switch fluorescence ratio
TGAGGGCCAG | 0.976
CAAACGCCTG | 1.05
CATGGGGACG | 1.01
TTGTGCGGT | 1
AAAACGGAAA | 0.94
AATCATGAGG | 1.02
GCACTGGCTT | 1.05
AGCATCAATG | 1.06
GATGCGAGTC | 1.03
CTTAAAGAAA | 0.954
CCTCGTCGCG | 1.03
ATGGTGAGTA | 1.12
CACGCTTCAG | 0.972
GACTTCGTAG | 0.965
AGGCGGCATT | 0.975
CTAAATACAG | 1.04
GGGACGTT | 1.03
TAGCGCTTAG | 0.991
CATTATCGTC | 0.962
ATTAGGGCTC | 0.99
TGCTTGCACC | 1.03
ATCGGTCATT | 0.97
CGAGTTAATC | 1.05
GAGGACATCC | 1.04
ACCATGCGT | 0.994

Sequence | switch fluorescence ratio
GAAACCCGGG | 1.03
CCTAACGAGT | 1.02
AACATCATG | 1
ATCTAGGATT | 1
AGGGACTCGC | 0.984
GCAGGGATTC | 1.02
CTCGCTCCCG | 1.08
GAGCTTTTTG | 1.02
TGGGCCACTA | 0.996
ACAAGACTAT | 1.13
GAGGAGTGTT | 0.988
CAATAGTCTG | 1.06
TTATAGGAGG | 0.994
GCGGTTCGCT | 1
GATTTTCACG | 0.953
TTCGGCTCGG | 0.979
CAGGGGCATC | 1.04
CGGTTTGTTC | 1.06
GGAAGTTACG | 1
GTGGCAACGG | 0.967
GACGGTAATG | 1.08
CAAATAGCTC | 1.04
TATACGCAGG | 1.12
CAGTCTTGAC | 0.995
CTCCCATCGT | 1.08

Sequence | switch fluorescence ratio
CAGTCATTT | 1
TTTAGCCCAA | 1.03
GCCGCATTAT | 2.57
TCCGGGTAGT | 1.05
TGTGCCTGAA | 1.02
TGCGCTTAAG | 1.04
CACGAGCTTT | 1.04
GGCTGTAAGC | 1.03
AGCTATCTCG | 1.11
GACATTCAAT | 1.02
AAGGGACCCG | 1.06
GGGGCCGTTC | 0.957
ACACGTCATA | 1.23
TGGCCGCTGG | 1.01
AGGTACCTGG | 1.03
GTGAGCGAAG | 1.01
CTATATTGGT | 1.03
GGGATAAATG | 0.979
CTTCCCGAGA | 1.13
CGAATGCATT | 1.04
TAAATGGTT | 0.999
GGGAGTCGTC | 1
GACAGAAATA | 1.03
CGAGAGACTA | 1
AGAAAGAAGA | 0.999
